{"source": "paper PMC4336329", "about": "(PLoS ONE, 2015)", "note": "The campaign covered roughly 310,000 compounds. About 14,000 (4.5%) showed an effect of 50% or more. Effects have a minus sign here. The list shows a part of the results.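 Further: peak tail current of the secondary pulse compared with the same well before compound.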", "data": [{"biological_target": "human ether-à-go-go-related gene (hERG) potassium channel (human, UniProt Q12809)", "sequence (Q12809 whole entry, looked up)": "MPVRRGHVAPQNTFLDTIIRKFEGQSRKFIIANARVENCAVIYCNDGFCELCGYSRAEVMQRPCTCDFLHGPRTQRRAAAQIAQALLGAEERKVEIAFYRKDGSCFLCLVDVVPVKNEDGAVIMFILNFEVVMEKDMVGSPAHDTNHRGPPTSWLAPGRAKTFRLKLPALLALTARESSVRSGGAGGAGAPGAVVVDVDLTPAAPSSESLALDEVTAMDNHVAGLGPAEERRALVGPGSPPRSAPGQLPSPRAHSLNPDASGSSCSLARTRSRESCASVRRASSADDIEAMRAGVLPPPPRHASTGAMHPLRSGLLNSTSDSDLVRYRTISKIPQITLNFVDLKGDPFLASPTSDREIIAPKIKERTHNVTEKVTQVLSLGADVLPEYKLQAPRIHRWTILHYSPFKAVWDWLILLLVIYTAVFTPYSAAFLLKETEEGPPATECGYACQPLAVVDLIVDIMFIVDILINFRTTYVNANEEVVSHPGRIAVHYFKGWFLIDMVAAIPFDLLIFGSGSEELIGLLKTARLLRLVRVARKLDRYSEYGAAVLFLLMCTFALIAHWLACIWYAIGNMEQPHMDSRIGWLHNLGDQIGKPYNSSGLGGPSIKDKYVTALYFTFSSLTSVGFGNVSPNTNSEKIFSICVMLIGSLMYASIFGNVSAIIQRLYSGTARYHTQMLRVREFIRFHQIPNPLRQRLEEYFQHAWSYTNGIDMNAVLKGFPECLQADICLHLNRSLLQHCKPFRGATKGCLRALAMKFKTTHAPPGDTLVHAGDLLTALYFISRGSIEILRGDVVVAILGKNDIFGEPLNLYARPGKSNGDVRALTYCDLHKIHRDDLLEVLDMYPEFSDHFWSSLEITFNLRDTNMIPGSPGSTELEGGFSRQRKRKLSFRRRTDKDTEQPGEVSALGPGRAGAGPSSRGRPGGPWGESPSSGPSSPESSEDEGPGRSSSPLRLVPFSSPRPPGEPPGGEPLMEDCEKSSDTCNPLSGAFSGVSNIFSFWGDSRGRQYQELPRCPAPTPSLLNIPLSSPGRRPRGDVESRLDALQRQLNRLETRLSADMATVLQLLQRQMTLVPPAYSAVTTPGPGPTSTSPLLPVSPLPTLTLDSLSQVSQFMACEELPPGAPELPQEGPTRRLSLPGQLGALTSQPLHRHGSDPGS", "assay": "primary screen, population patch clamp on CHO cells stably expressing hERG", "units": {"hERG current change (%, negative = inhibition) at 10uM": "%"}, "values": [{"smiles": "O=C(C1CC1)N1CCN(S(=O)(=O)c2ccc3c(c2)OCCO3)CC1", "hERG current change (%, negative = inhibition) at 10uM": 2.65}, {"smiles": "O=c1c2cc(Br)ccc2nc(-c2cccc(Cl)c2)n1O", "hERG current change (%, negative = inhibition) at 10uM": 18.7}, {"smiles": "CCOc1ccc(C2Nc3ccc4ccccc4c3-c3c2c(=O)oc2ccccc32)cc1", "note": "(stereo not shown)", "hERG current change (%, negative = inhibition) at 10uM": 0.825}, {"smiles": "COC(=O)[C@@H]1C[C@@]2(O)[C@@H](O)[C@@H](O)[C@@H](O)C[C@H]2N1Cc1ccc(Cl)cc1", "hERG current change (%, negative = inhibition) at 10uM": 11.6}, {"smiles": "N#Cc1ccc2c(c1)NC(=O)C1CCCN21", "note": "(stereo not shown)", "hERG current change (%, negative = inhibition) at 10uM": -46.9}, {"smiles": "Cc1c(NC(=O)c2noc3c2CCc2ccccc2-3)c(=O)n(-c2ccccc2)n1C", "hERG current change (%, negative = inhibition) at 10uM": -52.9}, {"smiles": "Cc1ccc(-c2cc([C@H]3[C@@H]4C=CCC[C@@]4(C)C(=O)N3Cc3ccccc3)ccc2F)cc1", "hERG current change (%, negative = inhibition) at 10uM": 8.75}, {"smiles": "O=C(/C=C/c1ccc(OCc2cccc(Cl)c2)cc1)N1CCOCC1", "hERG current change (%, negative = inhibition) at 10uM": -9.61}, {"smiles": "O=C(CSC1=NS(=O)(=O)c2cc(F)ccc2N1)Nc1ccc(F)cc1", "hERG current change (%, negative = inhibition) at 10uM": 10.5}, {"smiles": "Cc1cccc(N(C(=O)c2snc(C(N)=O)c2N)C(C(=O)NC2CCCC2)c2ccncc2)c1", "note": "(stereo not shown)", "hERG current change (%, negative = inhibition) at 10uM": 6.65}, {"smiles": "C=CCn1c(=NC(=O)c2ccco2)sc2cc(C(=O)OCC)ccc21", "hERG current change (%, negative = inhibition) at 10uM": -3.33}, {"smiles": "COC(=O)CSc1n[nH]c(-c2cccnc2)n1", "hERG current change (%, negative = inhibition) at 10uM": 2.8}, {"smiles": "O=C(/C=C/c1ccco1)c1ccc(NC(=O)C23CC4CC(CC(C4)C2)C3)cc1", "hERG current change (%, negative = inhibition) at 10uM": 22.5}, {"smiles": "COc1ccc(NC(=O)Cn2cc(S(=O)(=O)Cc3ccccc3)c3ccccc32)c(OC)c1", "hERG current change (%, negative = inhibition) at 10uM": 3.12}, {"smiles": "COc1ccccc1C(=O)NC(=O)COC(=O)Cc1n[nH]c(=O)c2ccccc12", "hERG current change (%, negative = inhibition) at 10uM": 1.52}, {"smiles": "COc1ccc(N2CCN(C(=O)C3COc4ccccc4O3)CC2)cc1", "note": "(stereo not shown)", "hERG current change (%, negative = inhibition) at 10uM": -22}, {"smiles": "CC(=O)Nc1ccc(NC(=O)C(C)OC(=O)COc2ccc(Nc3ccccc3)cc2)cc1", "note": "(stereo not shown)", "hERG current change (%, negative = inhibition) at 10uM": 14.1}, {"smiles": "O=C(COC(=O)c1ccccc1Br)Nc1cc(S(=O)(=O)N2CCOCC2)ccc1N1CCCC1", "hERG current change (%, negative = inhibition) at 10uM": 30.1}, {"smiles": "CC(C)=C1C2C=CC1C(C(=O)Nc1cc(C)ccc1C)C2C(=O)O", "note": "(stereo not shown)", "hERG current change (%, negative = inhibition) at 10uM": 12.3}, {"smiles": "O=C(Nc1ccc(Cl)cc1)NN1CC(=O)N(c2cccc(C(F)(F)F)c2)CC1=O", "hERG current change (%, negative = inhibition) at 10uM": 19.6}, {"smiles": "NS(=O)(=O)c1ccc(N2N=C(c3ccccc3)CC2c2ccc(F)cc2)cc1", "note": "(stereo not shown)", "hERG current change (%, negative = inhibition) at 10uM": 4.94}, {"smiles": "O=C(CN1CCN(c2ccc(O)cc2)CC1)Nc1cc(S(=O)(=O)N2CCCC2)ccc1Cl", "hERG current change (%, negative = inhibition) at 10uM": -30.5}, {"smiles": "COc1ccc(OCC(=O)N/N=C2\\CCc3ccccc32)cc1", "hERG current change (%, negative = inhibition) at 10uM": -23.9}, {"smiles": "CCCCc1nnc(NC(=O)C2CC(=O)N(Cc3ccccc3)C2)s1", "note": "(stereo not shown)", "hERG current change (%, negative = inhibition) at 10uM": -27.4}, {"smiles": "Cc1cc(C)n(CC2CC(=O)N(c3ccc(Cl)cc3)C2=O)n1", "note": "(stereo not shown)", "hERG current change (%, negative = inhibition) at 10uM": 13.5}, {"smiles": "O=C(CCCc1ccccc1)NCc1cn2ccsc2n1", "hERG current change (%, negative = inhibition) at 10uM": -12.1}, {"smiles": "Cc1ccc(/C=N/NC(=O)Cn2nnc(N)n2)o1", "hERG current change (%, negative = inhibition) at 10uM": 1.68}, {"smiles": "CCc1cccc(CC)c1NC(=O)c1cccc(N)c1", "hERG current change (%, negative = inhibition) at 10uM": -16.5}, {"smiles": "Nc1ccc(N2CCCCC2)c(S(=O)(=O)Nc2ccc(Cl)cc2)c1", "hERG current change (%, negative = inhibition) at 10uM": -10.3}, {"smiles": "Cc1cccc(NC(=O)c2sc(-c3ccccc3)nc2-c2ccc([N+](=O)[O-])cc2)c1", "hERG current change (%, negative = inhibition) at 10uM": 12.6}, {"smiles": "N#Cc1c(NC(=O)CSc2nnc(-c3ccncc3)n2CC2CCCO2)sc2c1CCCC2", "note": "(stereo not shown)", "hERG current change (%, negative = inhibition) at 10uM": -40.7}, {"smiles": "Cc1cc(C)cc(N(C(=O)C2CCCC2)C2C=CS(=O)(=O)C2)c1", "note": "(stereo not shown)", "hERG current change (%, negative = inhibition) at 10uM": -22.9}, {"smiles": "CC(=O)NC1C(=O)SC1(C)C", "note": "(stereo not shown)", "hERG current change (%, negative = inhibition) at 10uM": 21.5}, {"smiles": "COc1cc(OC)cc(C(=O)NCC(=O)N2CCN(c3ccc(O)cc3)CC2)c1", "hERG current change (%, negative = inhibition) at 10uM": -4.58}, {"smiles": "O=c1[nH]c2ccccc2n2c(=S)[nH]nc12", "hERG current change (%, negative = inhibition) at 10uM": 32.5}, {"smiles": "O=C(NCC1CCCO1)c1cccc(S(=O)(=O)N2CCOCC2)c1", "note": "(stereo not shown)", "hERG current change (%, negative = inhibition) at 10uM": 14.1}, {"smiles": "CC(Sc1ccc(Cl)cc1)C(=O)Nc1ccc2c(c1)OCO2", "note": "(stereo not shown)", "hERG current change (%, negative = inhibition) at 10uM": -8.04}, {"smiles": "Cc1cccc(NS(=O)(=O)c2cc3c(cc2C)n(C)c(=O)c(=O)n3C)c1", "hERG current change (%, negative = inhibition) at 10uM": -20.9}, {"smiles": "COc1ccc(C(=O)NCCC2=CCCCC2)cc1", "hERG current change (%, negative = inhibition) at 10uM": -9.79}, {"smiles": "COc1ccc(-c2csc(N3CCC(c4ccccc4)CC3)n2)cc1", "hERG current change (%, negative = inhibition) at 10uM": 23.2}, {"smiles": "CCC(=O)Nc1cccc(NC(=O)c2ccc(Br)cc2)c1", "hERG current change (%, negative = inhibition) at 10uM": 12}, {"smiles": "COc1ccc(S(=O)(=O)N2CCCCC2)cc1Br", "hERG current change (%, negative = inhibition) at 10uM": -12.3}, {"smiles": "CN1/C(=C\\C(=O)c2ccco2)c2ccccc2CC1(C)C", "hERG current change (%, negative = inhibition) at 10uM": -17.1}, {"smiles": "C/C(=N/OC(=O)c1c(-c2ccccc2Cl)noc1C)c1cnccn1", "hERG current change (%, negative = inhibition) at 10uM": -7.04}, {"smiles": "CCc1ccc(OCCCC(=O)Nc2ccc(N3CCCCC3)cc2)cc1", "hERG current change (%, negative = inhibition) at 10uM": 10.1}, {"smiles": "COc1ccc(N(C(C)C(=O)N/N=C/c2cc(Br)c(C)o2)S(C)(=O)=O)cc1", "note": "(stereo not shown)", "hERG current change (%, negative = inhibition) at 10uM": -54}, {"smiles": "CCc1nnc(NC(=O)CSc2nc3ccc(OC)cc3[nH]2)s1", "hERG current change (%, negative = inhibition) at 10uM": -3.22}, {"smiles": "Cc1ccc(C(=O)CSc2nnc3ccccn23)c(C)c1", "hERG current change (%, negative = inhibition) at 10uM": -5.23}, {"smiles": "O=C(c1cc2ccccc2o1)N1CCN=C1SCc1cccc(F)c1", "hERG current change (%, negative = inhibition) at 10uM": -7.82}, {"smiles": "CC1CCCCN1S(=O)(=O)c1ccc(N(C(=O)c2cnccn2)C(C(=O)NC2CCCC2)c2cccs2)cc1", "note": "(stereo not shown)", "hERG current change (%, negative = inhibition) at 10uM": -20.5}, {"smiles": "CC1(C)C(=O)OC(c2cccn2-c2ccc([N+](=O)[O-])cc2)C(C)(C)C1=O", "note": "(stereo not shown)", "hERG current change (%, negative = inhibition) at 10uM": -1.77}, {"smiles": "CCCC/C(C)=N/NC(=O)c1cn(-c2ccccc2)nc1-c1ccccc1", "hERG current change (%, negative = inhibition) at 10uM": 24.6}, {"smiles": "O=C(NN1CCOCC1)NC12CC3CC(CC(C3)C1)C2", "hERG current change (%, negative = inhibition) at 10uM": 1.76}, {"smiles": "CCOC(=O)[C@H]1[C@H]2COc3ccccc3[C@@H]2N2C(=O)c3c(C)cc(C)cc3NC(=O)[C@@]12C", "hERG current change (%, negative = inhibition) at 10uM": -22.5}, {"smiles": "O=C(Nc1ccccc1)C1CCCN1C(=O)Nc1ccccc1[N+](=O)[O-]", "note": "(stereo not shown)", "hERG current change (%, negative = inhibition) at 10uM": 3.16}]}]}
